Measured values reported in the supplement of paper PMC10126150.
Values marked as one replicate rest on one cluster of the flow cell; about a third of the high ones do not repeat.

Test system: ATP
Test: switch fluorescence ratio, 500 uM ATP over buffer (Cy3 cluster intensity, sum of 5 cycles each) (fold (ratio)); higher = stronger signal-on switching upon ATP binding; sequences stand for … in TCGTCGGCAGCGTCAGATGTGTATAAGAGACAGTTTTTTTTTTTTTTTTTTTTTTTTT…TC
Details: aptamer strand: ATP DNA aptamer (quencher-CACCTGGGGGAGTATTGCGGAGGAAGG + anchor), 100 nM annealed; ATP concentration: 500 uM; one replicate
Outline: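 The quencher-labelled ATP aptamer, at 100 nM, was annealed to Cy3-labelled switching-strand clusters on a modified Illumina MiSeq flow-cell. The clusters were imaged in selection buffer, then after 15 min with 500 uM ATP at 22 °C, and this buffer/ATP cycle ran five times with NaOH stripping and re-annealing between runs. Per-cluster fluorescence ratios, summed target-cycle over summed buffer-cycle Cy3 intensity, were averaged per switch-domain sequence. Clusters outside 100-1000 RFU were excluded.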
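Further: ATP exposure 15 min at 22 °C before imaging.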

| Sequence | switch fluorescence ratio |
| --- | --- |
| CCATCTATGC | 1.24 |
| ATCCGTGGGC | 1.26 |
| TAATCGGTAA | 0.99 |
| TTTTTATCGA | 0.976 |
| TTTGTGTGA | 1.08 |
| GAACCGCATT | 2.55 |
| TCCGGGCTTA | 1.19 |
| ACGGCGATGT | 1.04 |
| AGTTATAAGC | 0.983 |
| CGATGTATTA | 0.974 |
| AGGGTTGTGG | 0.976 |
| TATCTTGCAA | 5.25 |
| TTACCG | 0.986 |
| ATCACTCTT | 1.05 |
| TGCAAAGGCT | 1.01 |
| ATTAAGTACT | 1.24 |
| ACGATGCTCG | 1.01 |
| GTTAACCCGA | 0.985 |
| AAGTCTGTTG | 0.991 |
| GAGTTGTTTG | 0.996 |
| CGTTCGAATA | 1.05 |
| ATTCGTGAAA | 0.993 |
| GGCAGTTGGA | 0.97 |

| Sequence | switch fluorescence ratio |
| --- | --- |
| GGTACGCCGG | 1 |
| CGGGCCCTCC | 0.99 |
| TTACTAAAAA | 1.03 |
| TCTGGGGGA | 0.993 |
| CTTGGTCCAG | 0.998 |
| TTGTACCTAA | 1.1 |
| GCTGGTGTAG | 1.01 |
| GCCCTGCAAA | 1 |
| TGCAAACGTC | 0.934 |
| TTCGTGAGAG | 0.997 |
| GCCTTACGGC | 1.02 |
| AGCCGTCGAA | 1.02 |
| TTTCATCCTA | 1.2 |
| ACTTATGCGG | 0.979 |
| GCCTTACGCA | 1.16 |
| TTGTATGAGC | 0.988 |
| GAATTCCTAA | 0.977 |
| ATACAAGAAG | 1.03 |
| TGTAGTTTG | 1 |
| TGGTTAGGTG | 1.15 |
| TGTCCGGCCC | 1.04 |
| AGGTGTGG | 0.98 |
| CACAAGGTTA | 0.998 |

| Sequence | switch fluorescence ratio |
| --- | --- |
| AAGGAGTGG | 0.956 |
| AGCATCTGCT | 1 |
| TGTCGCGT | 0.997 |
| CGATCATGGG | 0.972 |
| CAACAATGGC | 1.01 |
| GGAGCTTCCA | 1.02 |
| ATGTTGCTCA | 1 |
| GTTGTCAAAC | 1.05 |
| ACGTGCGACA | 1.13 |
| CAAGGAGCAC | 1.08 |
| ACCCTAACCG | 1.02 |
| ACGGGGGCAC | 0.983 |
| ACATGGACTC | 1.11 |
| TCATACGTAG | 1.02 |
| AATACGTCGC | 1.08 |
| TATGATGTA | 0.985 |
| TTAGAAAATT | 0.991 |
| AAACGTACA | 1.71 |
| GAAAAGCTTA | 0.99 |
| GCATGCATCT | 0.992 |
| GTCGCACGGG | 0.936 |
| CAAGACTCGA | 1.02 |
| GCTATCGTAG | 1.01 |

| Sequence | switch fluorescence ratio |
| --- | --- |
| CCTTGCAAAA | 3.46 |
| TCATCTGGAA | 2.28 |
| CTTCTGACCC | 1.36 |
| CTTATGTTTG | 0.938 |
| TTTCGGATA | 1.06 |
| TTCGTCTAGA | 0.985 |
| GTGGTAATAA | 0.98 |
| TTTGCCGGGC | 0.968 |
| TTAACTGAAT | 1 |
| TTCCTAGGGT | 1.1 |
| GTAATGGAGA | 1.01 |
| AGTAGCTAGT | 0.964 |
| TTGCCCGGGA | 1.03 |
| TAGGGATATT | 1.04 |
| ATCTTTGTGG | 0.942 |
| CGCGGATGG | 1.02 |
| ATGTGTCGGA | 0.98 |
| CGCGGGGATT | 1.09 |
| TGTTCCAAAG | 1.05 |
| CAATCTTTG | 0.964 |
| CACTCCCTTT | 1.23 |
| GTGCTTTGGC | 0.992 |
| AAGTTGAAAC | 1.01 |

| Sequence | switch fluorescence ratio |
| --- | --- |
| GAGCCTCACG | 1.05 |
| ATAACGACGG | 1.03 |
| CTTGCTTGTC | 1.03 |
| ACCAGAGGTG | 1.23 |
| AAAGCCCGGC | 1.01 |
| GTCAAATTGC | 1.03 |
| TCTTAGTTG | 0.975 |
| GCCAAAGGAT | 1.01 |
| TTTCCTAAGA | 1.06 |
| TATCGCTAAG | 1.03 |
| TCGTGCCCAG | 1 |
| CGTCTTAAGG | 0.996 |
| TGATTTGCCG | 0.846 |
| AAGGCATAGG | 0.975 |
| CGGAGGTGGT | 0.996 |
| AGTCTTTTGA | 1.01 |
| AGAACATTGA | 0.952 |
| TGCTACTACG | 1.01 |
| CGAAATAAAC | 1.32 |
| CCAGAAACT | 1.07 |
| GCATTACATC | 1.11 |
| TAAGATAGCG | 1.01 |
| ACAGTCCAGT | 1.03 |

| Sequence | switch fluorescence ratio |
| --- | --- |
| GGCTCGGCTG | 0.985 |
| TTTTGAGCGC | 1.04 |
| CTGGCGTCGT | 0.983 |
| CGAGTTAAGG | 0.953 |
| CATTGGAGGC | 1.02 |
| TTCAAAGCTA | 1.16 |
| ATTGGGG | 0.981 |
| GTTCTGGCG | 0.96 |
| CCGAAGTTAA | 2.77 |
| TGCGAGTAGC | 0.984 |
| AGCGCGTTG | 1.01 |
| GCCGGAGAAG | 0.993 |
| GTTACTCCTT | 1.09 |
| GGGTACCTGA | 1.02 |
| TGAGGTGACT | 1 |
| ATGCTTGGTT | 1 |
| ATGCGTGAAA | 0.977 |
| AGCTCGGAGC | 0.981 |
| GGGTGGGTCG | 1.03 |
| CAGATAAC | 0.966 |
| TAATCTTAAG | 1 |
| GAAACGCAGG | 0.97 |
| AGTTTTTACG | 1.05 |

| Sequence | switch fluorescence ratio |
| --- | --- |
| GGGAACATAC | 1.37 |
| TTCGGGCCCA | 0.981 |
| ACGGTTCGCG | 0.989 |
| GTGGTTATCT | 0.999 |
| TCCAGTGCAG | 1.09 |
| AAGGAACCTT | 1.85 |
| TTGTGACTG | 1 |
| CGGATCAAGT | 1.03 |
| ATTTTACTTT | 1.01 |
| CAGGGTCATC | 0.998 |
| CGTTAGCCTC | 1.01 |
| TCCGTAGTTG | 1.61 |
| CAACAGGTAA | 1.01 |
| ATTCGCTAAC | 4.36 |
| TATCTTCTC | 1.02 |
| GGATCATATA | 1.01 |
| GCAATTCGGG | 1.38 |
| CACCGACAGC | 1.66 |
| ATGCGCATCA | 0.965 |
| AATGACGTGA | 0.995 |
